Reference: PubChem BioAssay AID1346428 (National Center for Advancing Translational Sciences (NCATS), 2018)
Several values for one entry are separate records, joined by “and”; a condition that tells them apart may be missing. Equal values may be shown once. In all, about 48,000 compounds went through this assay and about 1,200 (2.5%) were called active. Inconclusive results (about 2%) are left out.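 How the source made its calls: active means activation of at least 60% and not above a set upper limit (about 1 call in 100 departs from these limits); inconclusive means activation of 40% to 60%, or above that upper limit; inactive means activation under 40%.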 The list shows a part of the results.

Molecular target: Probable G-protein coupled receptor 32 (Homo sapiens) (UniProt O75388)
Sequence of UniProt O75388 (O75388 whole entry, looked up): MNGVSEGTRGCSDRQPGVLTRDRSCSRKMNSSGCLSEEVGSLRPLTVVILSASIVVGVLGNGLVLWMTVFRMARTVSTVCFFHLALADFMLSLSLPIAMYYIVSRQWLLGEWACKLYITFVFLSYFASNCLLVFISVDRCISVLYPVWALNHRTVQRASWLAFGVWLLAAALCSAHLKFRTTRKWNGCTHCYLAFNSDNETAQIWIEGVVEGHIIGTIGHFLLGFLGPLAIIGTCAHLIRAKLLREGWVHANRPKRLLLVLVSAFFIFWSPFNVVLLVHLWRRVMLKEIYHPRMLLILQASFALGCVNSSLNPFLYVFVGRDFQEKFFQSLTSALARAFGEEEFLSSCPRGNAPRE
Assay: qHTS for Agonists of Human Resolvin D1 Receptor DRV1; further: 0% is about no effect
Settings: CHO-K1 GPR32 beta-arrestin PathHunter luminescence, 90 min; at 76.9 µM; stronger effect = higher value; zero percent set by DMSO-only wells
How it was run: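 Readings come from a cell-based beta-arrestin complementation format: CHO-K1 GPR32 stable cells (2,500/well) treated 90 min with compounds, then beta-Gal substrate added for 1 h before chemiluminescence imaging.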

activation, inactive:
CC(C)CCNC(=O)c1cccc(-n2cnc3cccnc32)c1 -14.8%
CCCCN(CC)CCCNC(=O)C1CCN(c2nc3ccc(CC)cc3s2)CC1 -4.28%
Cc1ccc2c(c1)-c1c(c(C(=O)NCCc3ccccc3)nn1C)CS2 -0.257%
Cc1cccc(CS(=O)(=O)Cc2ccc(C(=O)NC(C)c3ccccc3)o2)c1 (stereo not drawn) -4.86%
COc1cccc(CNC(=O)Cn2c(SCC(=O)Nc3ccc(F)cc3)nc3ccccc32)c1 46.3%
COc1ccc(CCC(=O)NCc2nc3cccnc3n2Cc2ccc(C)cc2)cc1 -29.1%
CCOCCCNC(=O)c1[nH]c2cc(OC)ccc2c1Sc1ccccc1 -3.6%
Cc1cccc(N(CC(=O)Nc2cccc(Cl)c2C)S(C)(=O)=O)c1C 38.4%
Cc1ccc(S(=O)(=O)NCC(c2ccco2)N2CCN(c3ccccc3F)CC2)cc1 (stereo not drawn) -32%
Cc1cccc(Nc2nc3ccccc3n3c(N)nnc23)c1 -30.7%
Cc1cc2n(n1)CCCN2C(=O)Nc1cccc(C)c1C 4.79%
Cc1ccc(Cn2c(=O)c3cccnc3n(Cc3ccc(F)cc3)c2=O)cc1 -20.3%
OC1(c2ccccc2)CCNCC1 -26.5%
COc1cccc(N2CCN(c3ncc4c(n3)CCN(Cc3ccc(Br)cc3)C4)CC2)c1 -9.4%
Cc1c(C(=O)N(C)C)sc2c1c(=O)n(-c1ccc(F)cc1)c(=O)n2CC(=O)N(C)c1ccccc1 -4.99%
COc1ccccc1CNC(=O)CCC1N=C2c3ccccc3N=C(SCC(=O)NCCc3ccccc3)N2C1=O (stereo not drawn) 0.779%
Cc1ccc(OC(C)C(=O)NCC2(N3CCOCC3)CCCCC2)cc1C (stereo not drawn) -37%
CCc1ccc2oc(C(=O)Nc3nc(-c4ccccc4)ns3)c(C)c2c1 -2.91%
Cc1cccc(CNC(=O)c2ccc(Cn3c(SCc4ccccc4)nc4cccnc43)cc2)c1 -1.25%
CCOc1ccc(-n2c(SC(C)C(=O)OC)nc3c([nH]c4ccccc43)c2=O)cc1 (stereo not drawn) -5.87%
Cc1cc2oc(C(=O)Nc3ccc(S(=O)(=O)Nc4onc(C)c4C)cc3)cc(=O)c2cc1C -0.478%
COc1ccc(Cl)cc1NC(=O)c1nc(S(C)(=O)=O)ncc1N(Cc1ccc(C)cc1)Cc1ccco1 -18.7%
O=C(CSc1nc(=O)[nH]c2c1CCCC2)NCc1ccc(Cl)cc1 -0.854%
CCOC(=O)c1c(NC(=O)/C=C/c2ccc(OC)cc2)sc2c1CCC(C)C2 (stereo not drawn) -3.4%
NC[C@H](O)c1ccc(O)c(O)c1 2.17% and -8.95%
CCN(CCCNC(=O)c1cc2c(=O)[nH]c3ccc(C)cc3c2s1)Cc1ccccc1 -16.6%
Cc1ccccc1C(=O)Nc1sc2c(c1C(=O)N1CCC(C)CC1)CCCC2 -21.8%
CC(=O)Nc1ccccc1-c1nc2ccccc2n(C(C)C(=O)c2ccc(C)c(C)c2)c1=O (stereo not drawn) -2.05%
NC[C@H]1O[C@H](O[C@H]2[C@H](O[C@@H]3O[C@H](CO)[C@@H](O)[C@H]3O)C(O)[C@H](N)C[C@@H]2N)[C@H](N)[C@@H](O)[C@@H]1O (stereo partly drawn) -40%
CCN(c1ccccc1)S(=O)(=O)c1nnc(NC(=O)COc2ccccc2F)s1 13.4%
CCOc1ccc(CC(=O)NC2CC(=O)N(c3ccc4c(c3)OCCO4)C2)cc1 (stereo not drawn) 4.72%
COc1cc(C2C(=O)N(C3CCC(C)CC3)CC(=O)N2CCc2ccc(Cl)cc2)ccc1OC(C)C (stereo not drawn) -5.81%
Cc1ccc(NC(=O)CN(C)S(=O)(=O)c2cccc3nsnc23)c(C)c1 -4.51%
COc1ccc(-c2[nH]ncc2C(=O)NCc2ccccc2OC)cc1 -21.3%
Cc1ccc(Nc2cc(-c3ccccc3)nc(C)n2)cc1 -5.63%
COc1ccc(CNC(=O)C(=O)NCC(c2cccnc2)N2CCN(c3ccccc3F)CC2)cc1 (stereo not drawn) 17.3%
CC(=O)Nc1ccc(S(=O)(=O)Nc2ccc3c(c2)n(C)c(=O)n3C)c(C)c1 -6.18%
Cc1cc(C)n(-c2nc3cc(Cl)c(Cl)cc3nc2Nc2c(C)cccc2C)n1 10.1%
Cc1ccc(NC(=O)[C@H](Cc2ccccc2)N2Cc3ccccc3C2=O)cc1 24%
Cc1noc(C)c1S(=O)(=O)NCCc1csc2nc(-c3ccc(F)cc3)nn12 -0.0327%
CCSC1=NC2(CCN(C(=O)NC3CCCCC3)CC2)N=C1c1ccc(C)c(C)c1 -11.6%
CCCN(CCC)CCNC(=O)c1cc(Sc2ccc(Cl)cc2)nc2ccccc12 -20.4%
COc1nc(Oc2ccc(=O)n(-c3ccccc3)n2)nc(N(C)C)n1 -8.93%
CCc1cccc(NC(=O)c2ccc3c(=O)n4nc(Nc5ccccc5OC)sc4nc3c2)c1 6.37%
COc1ccc(OC)c(NC(=O)CCc2c(C)nc3c(-c4ccccc4)c(C)nn3c2C)c1 -7%
CCOC(=O)c1c(NC(=O)c2cc3ccccc3c(=O)o2)sc2c1CCCC2 -3.71%
Cc1cccc(CSCCNC(=O)CN(c2ccccc2)S(=O)(=O)N(C)C)c1 -19.1%
Cc1ccc(S(=O)(=O)c2cn(CC(=O)Nc3ccc4c(c3)OCO4)c3ccc(F)cc3c2=O)cc1 1.89%
CC(C)NC(=O)c1nn(C)c2c1CS(=O)(=O)c1ccccc1-2 -5.86%
COC(=O)c1cc(Cl)ccc1NC(=O)Cn1c(C)cc(C)c(C#N)c1=O 4.29%
CCOc1ccccc1CN(CCc1ccc2c(c1)OCO2)Cc1cc(OC)c(OC)cc1OC -23.2%
COc1ccccc1CNc1nc(-c2ccco2)nn1S(=O)(=O)c1ccc(C)cc1 -34.1%
Clc1ccc(CN2CCc3nc(Nc4ccc5c(c4)OCCO5)ncc3C2)cc1 9.01%
CCOC(=O)N1CCC(NC(=O)c2cnn(-c3cccc(C)c3)c2C2CCN(C(=O)OC(C)(C)C)CC2)CC1 -11.5%
CCCCCCOc1ccccc1C(N)=O 23.6%
CCn1c(=O)c2sccc2n2c(CCCC(=O)N3CCN(c4ccccc4OC)CC3)nnc12 -15.6%
Cc1ccccc1C(=O)NCc1ccc2c(c1)CCN2C(=O)c1ccccc1 -30.3%
Cc1ccc(-c2nsc(NC(=O)c3oc4cc(C)c(Cl)cc4c3C)n2)cc1 3.25%
CCn1c(SCC(=O)Nc2cccc(Cl)c2)nnc1-c1nonc1NC(C)=O -19.4%
COc1ccc(CNC(=O)C(=O)NCC(c2cccs2)S(=O)(=O)c2ccc(C)cc2)cc1 (stereo not drawn) -15.8%
O=C(c1ccc(F)cc1)N1c2ncnn2C2(CCCCC2)[C@@H]2CCCC[C@@H]21 -5.05%
COc1cc2[nH]c(=O)n(Cc3ccc(C(=O)N4CCN(c5cccc(C)c5C)CC4)cc3)c(=O)c2cc1OC -4.64%
CCOC(=O)c1ccc(NC(=O)c2ccc3c(c2)CCN3S(=O)(=O)c2ccc(Cl)cc2)cc1 -6.93%
COc1ccc(CNC(=O)c2cc(Nc3ccc(OC)cc3OC)nc3ccccc23)cc1 -21.1%
Cc1cccc(NS(=O)(=O)c2nnc(NC(=O)C3CCCCC3)s2)c1 -9.28%
CC(CNC(=O)c1ccc(Cn2c(SCc3ccccc3)nc3cccnc32)cc1)c1ccccc1 (stereo not drawn) -4.81%
Cc1ccc(-n2nc(CO)c(C(=O)NCCO)n2)cc1 -0.872%
COc1ccc(CCNC(=O)Cn2nnc(-c3cccc(C(F)(F)F)c3)n2)cc1OC -8.7%
Cc1ccc(C)c(CN2C(=O)c3ccccc3Sc3ccc(C(=O)NCCCOC(C)C)cc32)c1 -30.5%
COc1ccc2oc(=O)cc(CN3CCN(C(=O)c4ccccc4)CC3)c2c1 -7.88%
O=C(Nc1ccc(O)c(-c2nc3ccccc3o2)c1)c1cccs1 24.1%
CCOc1ccc(NC(=O)c2oc3ccccc3c2NC(=O)Cc2ccc(OC)c(OC)c2)cc1 -0.472%
CC(C)c1nn2c(=O)cc(COC(=O)c3ccc(NC(=O)c4ccccc4Cl)cc3)nc2s1 -12.5%
CCOC(=O)c1ccc(N2C(=O)c3n[nH]c(C)c3C2c2ccc(C(C)C)cc2)cc1 (stereo not drawn) 16.2%
O=C(CSc1n[nH]c(-c2ccccc2Cl)n1)N1CCN(c2ccc(F)cc2)CC1 -9.7%
CCOC(=O)c1c(NC(=O)c2ccc(S(=O)(=O)N(C)C)cc2)sc2c1CCN(C)C2 -34.2%
CCCCSCCCNC(=O)c1cc(-c2cccnc2)nc2ccc(S(=O)(=O)N3CCC(C)CC3)cc12 -3.83%
COc1ccc(NC(=O)Cn2c(=O)n(CC3CCCO3)c(=O)c3ccccc32)cc1 (stereo not drawn) -30.6%
CCCCCCNc1ncnc2c1sc1nc(N3CCOCC3)c3c(c12)CCCC3 1.33%
CCCN(C(=O)c1nn(-c2ccc(C)cc2)c(=O)c2c1c1ccccc1n2C)c1ccccc1C -0.196%
Cc1oc2ccc(O)c(CN3CCN(Cc4ccccc4)CC3)c2c1C(=O)Nc1cccc(Cl)c1C -16.4%
c1ccc2c(c1)CC(N1CCN(c3cccc4c3OCCO4)CC1)C2 9.71%
O=C(Nc1cccc(C(=O)N2CCN(c3ccc(F)cc3)CC2)c1)c1nsc2ccccc12 -17.2%
